Data: PubChem BioAssay AID686979 (National Center for Advancing Translational Sciences (NCATS), 2013)
Several values for one entry are separate records, joined by “and”; a condition that tells them apart may be missing. Equal values may be shown once. Among all 420,000 compounds or so, about 50,000 (12%) were called active. The inconclusive results got no clear call from the source; some entries with a clear call stand among them for comparison. Calls come from the whole dose curve; as a rule, active = well fitted inhibition curve with a large enough effect; inconclusive = small, poorly fitted or top-dose-only effect; inactive = flat fitted curve, though single readings scatter. Where the call is inconclusive, the potency comes from a doubtful curve fit.
% is set by controls: 0 for no effect and ±100 for the full control effect; potency is the fitted concentration of half-maximal effect; tags give direction and shape of the fitted curve.

Assay: qHTS for Inhibitors of human tyrosyl-DNA phosphodiesterase 1 (TDP1): qHTS in cells in presence of CPT; note: nearly all actives have a fitted effect of over 55% in size
Settings: chicken DT40 Tdp1-/-;hTDP1 cells + 20 nM CPT, ATP luminescence, 48 h; activity change, negative = growth inhibition: at 46.2 µM (top of the series)
Procedure, shortened: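 Chicken DT40 Tdp1-/- cells stably complemented with human TDP1 were seeded at 400 cells/well in medium containing 20 nM camptothecin, exposed to pin-transferred compounds, and grown at 37 °C for at least 48 hr. Viability was read as ATP luminescence.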
In the case of `CCCCONc1ncnc2nonc12`, the “activity change, negative = growth inhibition” value is reported as inactive: -4.48%. For `Nc1nc(N)c2cc(S(=O)(=O)c3ccc4ccccc4c3)ccc2n1`, the Potency was inconclusive: 11.6 µM [inhibitor, partial curve]. With `CC(CC(=O)N1CCN(c2ccccc2)CC1)S(=O)(=O)c1ccc2c(c1)NC(=O)CS2` (stereo not given) the Potency was active: 23.1 µM. For `COc1ccc(CCC(C)NCc2ccccc2OC)cc1` (stereo not given), the Potency was active: 25.9 µM. With `CN(CCc1ccccc1)C(=O)c1cc(COc2cccc(C(F)(F)F)c2)on1` the Potency was inconclusive: 25.9 µM [inhibitor, single point]. With `N#Cc1ccc(Oc2c(Cl)cncc2Cl)cc1` the Potency was inconclusive: 18.4 µM [inhibitor, single point]. With `COc1cc(Cl)c(C)cc1NC(=O)CSCC#N` the “activity change, negative = growth inhibition” value was inactive: -21.5%. For `Nc1ccccc1C#CCCCCO`, the “activity change, negative = growth inhibition” value was inactive: 8.57%. For `CN1CCc2c(C#N)c(N3CCCCC3)nc(NCc3ccccc3)c2C1`, the Potency was inconclusive: 23.1 µM [inhibitor, partial curve]. In the case of `COc1ccc(CNC(=O)COC(=O)c2c(NC(C)=O)sc(C)c2C)cc1`, the Potency is reported as inconclusive: 16.4 µM [inhibitor, single point]. For `CNc1ncnc2sc(-c3ccccc3)cc12`, the Potency was active: 16.4 µM. In the case of `COc1ccc(/C=C2\SC(=O)N(CCNC(=O)Cc3coc4cc(C)ccc34)C2=O)cc1OC`, the Potency is reported as inconclusive: 29.1 µM [inhibitor, single point]. In the case of `O=C(CSc1ccccn1)N1CCN(c2ccc(Cl)cc2)CC1`, the Potency is reported as inconclusive: 20.6 µM [inhibitor, single point]. With `CCc1c(C)nc2c(-c3ccccc3)c(-c3ccccc3)[nH]n2c1=O` the Potency was active: 2.31 µM. With `Cc1ccc(NC(=O)CSc2nccn2Cc2ccccc2)cc1C` the Potency was inconclusive: 29.1 µM [inhibitor, single point]. With `Cc1cccnc1NC(=O)CN1C(=O)NC(C)(c2ccc3ccccc3c2)C1=O` (stereo not given) the “activity change, negative = growth inhibition” value was inactive: -21.4%. With `CCOCCCNc1c(CC)c(C)c(C#N)c2nc3ccccc3n12` the Potency was inconclusive: 23.1 µM [inhibitor, single point]. In the case of `COCC(=O)Nc1nnc(SCC(=O)NCc2cccs2)s1`, the “activity change, negative = growth inhibition” value is reported as inactive: -25%. With `COc1cnc(-c2ccccn2)nc1Oc1ccc(Cl)c2ccccc12` the Potency was active: 1.3 µM. For `CC(=O)NCC(=O)N(C)C(C(=O)Nc1ccc2c(c1)OCCO2)c1ccc(C)cc1` (stereo not given), the “activity change, negative = growth inhibition” value was inactive: 0.807%. In the case of `Cc1ccccc1CN1CCN(C(C)C(=O)NCc2ccccc2)CC1` (stereo not given), the activity change, negative = growth inhibition is reported as inconclusive: -33.1% [inhibitor]. For `COc1ccc(/C=C/c2cccc[n+]2C)c(O)c1`, the Potency was inconclusive: 29.1 µM [inhibitor, single point]. With `CC(=O)c1ccc(NC(=O)N2CCN(c3cccc(Cl)c3)CC2)cc1` the Potency was active: 11.6 µM. For `Cc1ccc(CNC(=O)CSc2nc3n[nH]c(C)c3c(=N)n2-c2ccccc2Cl)cc1`, the Potency was active: 18.4 µM. In the case of `Cc1ccc(-c2ccnc(-n3ncc(C(=O)N(C)Cc4cccc5ncccc45)c3C3CC3)n2)o1`, the activity change, negative = growth inhibition is reported as inactive: 10% [at 9.04 µM]. For `Cc1cccc(NC(=O)c2nc[nH]c2C(=O)N2CCc3ccccc3C2)c1`, the Potency was inconclusive: 29.1 µM [inhibitor, single point]. For `CCC(=O)N1CCc2cc(S(=O)(=O)N(C)c3ccc(OC)cc3OC)ccc21`, the Potency was inconclusive: 25.9 µM [inhibitor, single point]. With `COc1cccc(NC(=O)/C=C/c2ccccc2[N+](=O)[O-])c1` the Potency was inconclusive: 29.1 µM [inhibitor, single point]. With `COc1ccccc1CNC(=O)CSc1nnc(C)c2c(C)n(-c3ccccc3)nc12` the Potency was active: 20.6 µM. With `O=C(Nc1ccc(Cl)cc1)C1CCCCN1S(=O)(=O)c1ccccc1` (stereo not given) the Potency was inconclusive: 11.6 µM [inhibitor, partial curve, poor fit]. In the case of `Nc1nc2ccccc2[nH]1`, the “activity change, negative = growth inhibition” value is reported as inactive: 16.7%. In the case of `Nc1c(N(CCC2=CCCCC2)C(=O)COc2ccc([N+](=O)[O-])cc2)c(=O)[nH]c(=O)n1Cc1ccccc1`, the Potency is reported as inconclusive: 29.1 µM [inhibitor, single point]. In the case of `COCCNC(=O)c1ccc(-c2nc(CS(=O)(=O)c3ccccc3)c(C)o2)cc1`, the “activity change, negative = growth inhibition” value is reported as inactive: -12.9%. In the case of `COc1ccc(C(CC(=O)N2CCN(c3ccccc3)CC2)c2c(O)cc(OC)cc2OC)cc1` (stereo not given), the “activity change, negative = growth inhibition” value is reported as inactive: -12%. For `O=C(Nc1ccc(F)cc1)Nc1nnc([C@H]2C[C@H](O)[C@@H](CO)O2)s1`, the Potency was inconclusive: 32.6 µM [inhibitor, single point]. With `O=C1NC(=S)S/C1=C\c1coc2ccccc2c1=O` the Potency was inconclusive: 20.6 µM [inhibitor, single point]. In the case of `CCOCCCn1c(SCC(=O)Nc2ccccc2Cl)nc2c(oc3ccccc32)c1=O`, the Potency is reported as inconclusive: 16.4 µM [inhibitor, single point]. With `CC(Oc1ccc(Br)cc1Br)C(=O)Nc1cccnc1` (stereo not given) the “activity change, negative = growth inhibition” value was inactive: -23.8%. In the case of `Cc1ccc(C)c(N2CCN(c3ccncc3N)CC2)c1`, the Potency is reported as active: 18.4 µM. With `COc1ccc(/C=N/n2c(=S)n(C)c3ccccc32)cc1OC` the Potency was inconclusive: 29.1 µM [inhibitor, single point]. With `O=C(Nc1cccc(S(=O)(=O)NCc2ccco2)c1)c1ccc(Cl)cc1` the Potency was inconclusive: 18.4 µM [inhibitor, partial curve]. For `CCOc1ccc(NCc2nc3ccccc3n2CCOc2ccc(C)cc2)cc1`, the Potency was active: 6.51 µM. In the case of `CCCNc1c(NS(=O)(=O)c2ccc(OC)c(OC)c2)c(=O)oc2ccccc12`, the “activity change, negative = growth inhibition” value is reported as inactive: -19.1%. In the case of `O=C(Oc1ccccc1)N1CCC2(CCCN(c3ccncc3)C2)CC1`, the Potency is reported as active: 20.6 µM. For `CCNC(=O)C1(C)CCCN(Cc2cccc(Oc3ccccc3)c2)C1` (stereo not given), the Potency was active: 18.4 µM. In the case of `C[C@@]12C(=O)N(c3ccc(C(F)(F)F)cc3)C(=O)N1[C@@H]1c3ccccc3OC[C@@H]1[C@H]2c1ccccc1`, the Potency is reported as active: 7.31 µM. In the case of `CCOc1ccc(NC(=O)CSc2nc3ccsc3c(=O)n2CCCCCC(=O)O)cc1`, the Potency is reported as “inactive and inconclusive: 20.6 µM [inhibitor, single point]”. In the case of `COC(=O)c1cc(=O)n(Cc2ccc3c(c2)OCO3)c(=Nc2ccccc2)s1`, the “activity change, negative = growth inhibition” value is reported as inactive: 11.6%. With `O=C(CSc1nc2c(c(=O)[nH]1)CN(Cc1ccc3c(c1)OCO3)CC2)Nc1ccccc1Cl` the “activity change, negative = growth inhibition” value was inactive: -11%. For `COc1cccc(Nc2ncc3nc(-c4ccc(F)cc4)c(=O)n(C[C@H]4CCCO4)c3n2)c1`, the “activity change, negative = growth inhibition” value was inactive: 6.59%. For `CC(C)CC(NC(=O)OCC1c2ccccc2-c2ccccc21)C(=O)O` (stereo not given), the “activity change, negative = growth inhibition” value was inactive: -2.59%. For `Cc1cc(C)c(C(=O)Nn2c(C)nc3ccccc3c2=O)cc1C`, the Potency was inconclusive: 25.9 µM [inhibitor, single point]. With `COc1ccc(S(=O)(=O)N(C)C)cc1NC(=O)COC(=O)Cn1cnc2ccccc2c1=O` the “activity change, negative = growth inhibition” value was inactive: 26.6%. In the case of `CCCCC(=O)Nc1ccc2c(c1)nc(CCN1CCOCC1)n2C`, the Potency is reported as inconclusive: 23.1 µM [inhibitor, single point]. With `Cc1cc(C)cc(N(C(=O)Cc2cccs2)C(C(=O)NC2CCCC2)c2ccc(C)o2)c1` (stereo not given) the Potency was inconclusive: 32.6 µM [inhibitor, partial curve, poor fit]. For `CCOc1ccc(S(=O)(=O)N2CCCC(C(=O)NCc3ccncc3)C2)cc1Cl` (stereo not given), the “activity change, negative = growth inhibition” value was inactive: -17.9%. For `Cc1ccc(NC(=O)C(=O)c2c[nH]c3ccccc23)cc1`, the “activity change, negative = growth inhibition” value was inactive: -11.6%. For `CCc1nn2c(=O)c(S(=O)(=O)Nc3ccc(C(C)C)cc3)c(C)nc2s1`, the Potency was inconclusive: 29.1 µM [inhibitor, single point] and inconclusive: 23.1 µM [inhibitor, partial curve]. For `CN(C)S(=O)(=O)N1CCCC(C(=O)c2ccc(C(F)(F)F)cc2)C1` (stereo not given), the “activity change, negative = growth inhibition” value was inactive: -20.2%. For `COc1cccc(Cn2c(CNS(=O)(=O)c3ccc(Cl)s3)nc3cccnc32)c1`, the Potency was inconclusive: 18.4 µM [inhibitor, single point]. With `Cc1ccc(-c2c[n+](CC(=O)c3cccs3)c3n2CCC3)cc1` the Potency was active: 3.66 µM. For `CC1CC(=O)Nc2ccccc2N1S(=O)(=O)c1ccccc1` (stereo not given), the Potency was inconclusive: 29.1 µM [inhibitor, single point]. In the case of `CCc1ccc(-n2nc3ccc(NC(=O)COc4ccc(OC)cc4)cc3n2)cc1`, the “activity change, negative = growth inhibition” value is reported as inactive: -14.9%. For `CNNCc1ccc(C(=O)NC(C)C)cc1`, the Potency was inconclusive: 29.1 µM [inhibitor, single point]. With `CC(C)(C)c1cc(CCC(=O)NCc2ccccn2)cc(C(C)(C)C)c1O` the Potency was inconclusive: 29.1 µM [inhibitor, single point]. In the case of `O=C(COC(=O)c1ccccc1OC(F)F)Nc1ccc(N2CCCCC2)cc1`, the “activity change, negative = growth inhibition” value is reported as inactive: -7.63%. In the case of `Clc1ccccc1-c1cncnc1NCCN1CCOCC1`, the Potency is reported as active: 3.26 µM. For `COC(=O)C(F)(F)Sc1c(C)[nH]c2ccccc12`, the Potency was inconclusive: 18.4 µM [inhibitor, single point]. With `CCC(C(=O)OCC(=O)Nc1ccc(C(=O)Nc2ccc(OC)cc2)cc1)c1ccccc1` (stereo not given) the Potency was inconclusive: 29.1 µM [inhibitor, single point]. In the case of `S=c1[nH]nc(CSCc2ccc(Cl)cc2Cl)n1-c1ccccc1`, the Potency is reported as inconclusive: 17.8 µM [inhibitor, single point]. With `CCC(Oc1ccccc1)C(=O)Nc1ccccc1N1CCCCC1` (stereo not given) the Potency was inconclusive: 29.1 µM [inhibitor, single point]. In the case of `COc1ccc(C(=O)C=CNNC(=O)c2ccc(Cl)cc2)cc1`, the Potency is reported as active: 3.26 µM. In the case of `Cc1ccc(S(=O)(=O)CCC(=O)Nc2nc(C(C)(C)C)cs2)cc1`, the Potency is reported as inconclusive: 20.6 µM [inhibitor, single point]. With `COc1ccc(Br)cc1CNC(=O)C1CCCN(S(=O)(=O)N2CC(C)CC(C)C2)C1` (stereo not given) the Potency was inconclusive: 29.1 µM [inhibitor, single point]. For `CCN(CC(=O)Nc1ccc(NC(C)=O)cc1)C(=O)c1cc(S(=O)(=O)N2CCCCCC2)ccc1OC`, the “activity change, negative = growth inhibition” value was inactive: -12.3%.
